This is an account of results in the RNAGym collection of RNA variant scans (doi:10.7554/elife.90254).

B1: LINE1-mini (parent)
chain: GGCAGAGCUCAACACAGCGUGGCAAAGUGGCUGUGGCUAGACUGCC

The source gives no read counts; variants with many changes may rest on few reads.

This series covers variants of B1. The experiment in a line: self-cleavage, relative activity (ratio to wild type); higher = more cleavage; in vitro, sequencing; the parent is a self-cleaving ribozyme.
In the case of GGCAGAGCUCAACACAGCGUGGCAAAGUGGCUGUGCUUAGAGUGCC, the self-cleavage is 0.01.
The result for GGCAGAGCUCAACACAGCGUGGCAAAGUGGCUGUGCCUAAACUACC reads 0.07; that for GGCAGAGCUCAACACAGCGUGGCAAAGUGGCUGUUGCUUGACUGAC, 0.04; that for GGCAGAGCUCAACACAGCGUGGCAAAGUGGCUGUGUCCAGACUGCU, 0.02.
The result for GGCAGAGCUCAACACAGCGUGGCAAAGUGGCUGUGGAUUGUCUGCC reads 0.11.
The result for GGCAGAGCUCAACACAGCGUGGCAAAGUGGCUGUGCCUAGCCUCCC reads 0.08; that for GGCAGAGCUCAACACAGCGUGGCAAAGUGGCUUACGCUAGACUGCC, 0.04.
As for GGCAGAGCUCAACACAGCGUGGCAAAGUGGCUGGGUCUAGUCUGCC, the self-cleavage amounted to 0.1.
The result for GGCAGAGCUCAACACAGCGUGGCAAAGUGGCUGCGGAUCGACUGCC reads 0.04; that for GGCAGAGCUCAACACAGCGUGGCAAAGUGGCUGUAGCUGGCCUGAC, 0.04; that for GGCAGAGCUCAACACAGCGUGGCAAAGUGGCUGACUCUAGACUGCC, 0.02.
The result for GGCAGAGCUCAACACAGCGUGGCAAAGUGGCUGUAUCUAGAGUGCC reads 0.03.
The result for GGCAGAGCUCAACACAGCGUGGCAAAGUGGCUGUGUCUAACCUGGC reads 0.05; that for GGCAGAGCUCAACACAGCGUGGCAAAGUGGCUGUGACUCGUCUGCC, 0.87; that for GGCAGAGCUCAACACAGCGUGGCAAAGUGGCUUGGGCUAAACUGCU, 0.03.
Take GGCAGAGCUCAACACAGCGUGGCAAAGUGGCUGUCGAUAGACUGCU: the self-cleavage came to 0.02.
On to GGCAGAGCUCAACACAGCGUGGCAAAGUGGCUGUGUCUGGACGGCC, for which the self-cleavage stood at 0.01.
With GGCAGAGCUCAACACAGCGUGGCAAAGUGGCUGUUGACAGAAUGCC, the self-cleavage worked out at 0.02.
In the case of GGCAGAGCUCAACACAGCGUGGCAAAGUGGCUGUGUAUAGAGUGCC, the self-cleavage was determined as 0.07.
GGCAGAGCUCAACACAGCGUGGCAAAGUGGCUUUGACUAGGCUGCC: the self-cleavage was determined as 0.14.
For GGCAGAGCUCAACACAGCGUGGCAAAGUGGCUGUGUCUAUAGUGCC, the self-cleavage came to 0.37.
As to GGCAGAGCUCAACACAGCGUGGCAAAGUGGCUGUGACGAUACUGCC, the self-cleavage is 0.
The same measure for GGCAGAGCUCAACACAGCGUGGCAAAGUGGCUUUGGCCAGACUGCU: 0.04.
The same measure for GGCAGAGCUCAACACAGCGUGGCAAAGUGGCUGGGGCUCGAUUGCC: 0.03; for GGCAGAGCUCAACACAGCGUGGCAAAGUGGCUUAGGCUAGACUGCU: 0.05; for GGCAGAGCUCAACACAGCGUGGCAAAGUGGCUGUCGCUAGACACCC: 0.03.
For GGCAGAGCUCAACACAGCGUGGCAAAGUGGCUGUUGCGCGACAGCC, the self-cleavage came out at 0.04.
The same measure for GGCAGAGCUCAACACAGCGUGGCAAAGUGGCUUCGGCUACACUUCC: 0.02; for GGCAGAGCUCAACACAGCGUGGCAAAGUGGCUUUGCCAAGACUGCU: 0.09.
The result for GGCAGAGCUCAACACAGCGUGGCAAAGUGGCUGUGGAUAUGCUGCC reads 0.42; that for GGCAGAGCUCAACACAGCGUGGCAAAGUGGCUGUAGCUAAAAUGCA, 0.06; that for GGCAGAGCUCAACACAGCGUGGCAAAGUGGCUGUCGCUAUAAUGCC, 0.02.
The same measure for GGCAGAGCUCAACACAGCGUGGCAAAGUGGCUGUCGCUAGAUGGCC: 0.04; for GGCAGAGCUCAACACAGCGUGGCAAAGUGGCUUCAGCUAGACUGAC: 0.08; for GGCAGAGCUCAACACAGCGUGGCAAAGUGGCUGAGGUUAUACUGCC: 0.03.
With GGCAGAGCUCAACACAGCGUGGCAAAGUGGCUGUAGCUAAACUGUA, the self-cleavage came to 0.08.
The same measure for GGCAGAGCUCAACACAGCGUGGCAAAGUGGCUGUGAUUAGACUUCC: 0.23.
The same measure for GGCAGAGCUCAACACAGCGUGGCAAAGUGGCUGUCUCUAGACUGCU: 0.05; for GGCAGAGCUCAACACAGCGUGGCAAAGUGGCUUUGGCCAGAGUGCC: 0.03; for GGCAGAGCUCAACACAGCGUGGCAAAGUGGCUGUGGAUGAACUGCC: 0.02.
The same measure for GGCAGAGCUCAACACAGCGUGGCAAAGUGGCUGGGCCUAGCCUGCC: 0.01; for GGCAGAGCUCAACACAGCGUGGCAAAGUGGCUGGGCCUAGGCUGCC: 0.03; for GGCAGAGCUCAACACAGCGUGGCAAAGUGGCUGUGUCUGGUCUGCC: 0.02.
Take GGCAGAGCUCAACACAGCGUGGCAAAGUGGCUGUAGAGAGACAACC: the self-cleavage turned out to be 0.
The same measure for GGCAGAGCUCAACACAGCGUGGCAAAGUGGCUUUGGCUAUAAGUCC: 0.05; for GGCAGAGCUCAACACAGCGUGGCAAAGUGGCUGUUGCAAUCCUGCC: 0.1.
In the case of GGCAGAGCUCAACACAGCGUGGCAAAGUGGCUGUGUCUCGACUGCU, the self-cleavage was determined as 0.04.
The result for GGCAGAGCUCAACACAGCGUGGCAAAGUGGCUGUCGCUAGACAGCU reads 0.03.
The result for GGCAGAGCUCAACACAGCGUGGCAAAGUGGCUGCGCCUCGACUGCC reads 0.01; that for GGCAGAGCUCAACACAGCGUGGCAAAGUGGCUGUCGCUAGCUUGCC, 0; that for GGCAGAGCUCAACACAGCGUGGCAAAGUGGCUGUGAGUAAACUGCG, 0.03.
The same measure for GGCAGAGCUCAACACAGCGUGGCAAAGUGGCUGUUGGUAGACUGCU: 0.04; for GGCAGAGCUCAACACAGCGUGGCAAAGUGGCUGUGAACGGACUGCC: 0.06.
GGCAGAGCUCAACACAGCGUGGCAAAGUGGCUGUAGCUAGGCUGUC: the self-cleavage was 0.12.
The result for GGCAGAGCUCAACACAGCGUGGCAAAGUGGCUGUAGAUAGACUGGC reads 0.19; that for GGCAGAGCUCAACACAGCGUGGCAAAGUGGCUGAGGCGAGGCUGCC, 0.06.
